# From PubChem BioAssay AID624417 (National Center for Advancing Translational Sciences (NCATS), 2012)
# Screen size: about 410,000 compounds; about 6,400 (1.6%) were called active. The inconclusive results got no clear call from the source; some entries with a clear call stand among them for comparison. Calls follow the shape of the dose curve; as a rule, active = well fitted inhibition curve with a large enough effect; inconclusive = small, poorly fitted or top-dose-only effect; inactive = no such curve, though single readings can be large or run the other way. No potency is given beside an inconclusive call; the fits are too rough.
# Target: Glucagon-like peptide 1 receptor (Homo sapiens) (UniProt P43220)
# Assay: qHTS of GLP-1 Receptor Inverse Agonists (Inhibition Mode); also: nearly all actives have a fitted effect of over 55% in size
# Settings: HEK293 GLP-1R CRE-luciferase, luminescence, 24 h, GLP-1R form is constitutively active; activity change, negative = inhibition: at 38.3 µM (top of the series) unless noted
# Method in brief: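 Seeding at 200 cells/uL, 12 h culture, 24 hr compound treatment, then luciferase reagent and a luminescence read; cells are HEK293 stably expressing a constitutively active GLP-1R plus cAMP-responsive luciferase.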
# % is scaled to controls: 0 for no effect and ±100 for the full control effect; potency is read from the fitted curve at half-maximal effect; tags tell the direction and shape of the fitted curve.
# Sequence of UniProt P43220 (P43220 whole entry, looked up): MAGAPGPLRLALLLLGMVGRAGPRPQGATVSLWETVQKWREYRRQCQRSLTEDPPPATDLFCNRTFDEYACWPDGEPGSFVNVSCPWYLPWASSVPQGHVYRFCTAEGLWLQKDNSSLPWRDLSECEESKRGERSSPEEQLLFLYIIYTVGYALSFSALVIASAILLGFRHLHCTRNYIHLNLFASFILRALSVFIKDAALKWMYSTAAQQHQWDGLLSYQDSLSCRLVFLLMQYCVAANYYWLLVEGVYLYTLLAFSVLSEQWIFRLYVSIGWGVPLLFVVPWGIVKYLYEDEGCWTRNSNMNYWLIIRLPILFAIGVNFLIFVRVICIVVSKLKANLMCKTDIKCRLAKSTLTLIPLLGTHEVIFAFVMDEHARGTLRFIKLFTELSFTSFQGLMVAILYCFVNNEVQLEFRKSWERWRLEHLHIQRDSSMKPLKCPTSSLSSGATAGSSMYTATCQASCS
SMILES,"activity change, negative = inhibition",Potency
O=C(Cn1ccsc1=NC(=O)C(F)(F)F)c1ccccc1,inactive: -0.142%,
CC(C)N1CCc2c(sc(NC(=O)C3CCCCC3)c2C(N)=O)C1,,"inconclusive [inhibitor, partial curve, poor fit]"
Cc1cccc(C)c1NC(=O)CCS(=O)(=O)c1ccc2c(c1)CC(C)N2C(=O)C1CC1 (stereo not drawn),inactive: 10.7%,
O=C(Nc1cccc(NC(=O)c2cccs2)c1)c1ccc(F)cc1,,"inconclusive [inhibitor, single point]"
COc1ccc2c(c1)CCc1c(C(=O)Nc3c(C)nn(Cc4ccc(Cl)cc4)c3C)noc1-2,,"inconclusive [inhibitor, partial curve, poor fit]"
O=C(OCc1ccccc1)N1CCC2CC1c1cc(N3CCNCC3)ccc12 (stereo not drawn),,"inconclusive [inhibitor, single point]"
COc1ccc(OC)c(NC(=O)C(C)n2nc(C)c3c(C)n(-c4ccccc4)nc3c2=O)c1 (stereo not drawn),inactive: 9.84%,
CCN(Cc1ccccc1)C(=O)c1[nH]c2ccc(OC)cc2c1C,,"inconclusive [inhibitor, single point]"
COc1ccc(NC(=O)Nc2nc(C(N)CC(C)C)cs2)cc1 (stereo not drawn),,"inconclusive [inhibitor, single point]"
COc1cccc(CNC(=O)CN2C(=O)N(c3c(C)cccc3C)S(=O)(=O)c3ccccc32)c1OC,inactive: -23.5%,
O=C(C(Cl)Cl)N1c2ccccc2OCC1c1ccccc1 (stereo not drawn),,"inconclusive [inhibitor, single point]"
CN1CCN(S(=O)(=O)c2ccc(Oc3ccc(F)c(Cl)c3)nc2)CC1,,"inconclusive [inhibitor, partial curve, poor fit]"
CCOc1ccccc1Nc1nc(-c2ccc(C)cc2)c(CC(=O)O)s1,,"inconclusive [inhibitor, single point]"
Cc1nnc(SCC(=O)N2c3ccccc3C(C)(c3ccccc3)CC2(C)C)s1 (stereo not drawn),inactive: -3.27%,
CC(=O)C(/C=N/c1cc(-c2ccc(C)cc2)nn1-c1ccccc1)=C(\C)O,inactive: -0.117%,
CN(c1cccc(F)c1)c1cc2c(c3c1ccn3C)C1CCC2C1 (stereo not drawn),inactive: -0.66%,
CCC(C)(C)N1CC(=O)N(Cc2ccccc2)C(c2ccc(OC)cc2)C1=O (stereo not drawn),inactive: 2.25%,
O=C(CSCc1ccccc1Cl)NCc1ccc(Cl)c(Cl)c1,,"inconclusive [inhibitor, single point]"
CCNC(=S)NNC(=O)c1ccc(=O)n(Cc2ccccc2)c1,inactive: 30.8%,
CCN(CC)c1ccc(NC(=O)CN2CCN(CC(=O)Nc3ccccc3F)CC2)cc1,,"inconclusive [inhibitor, partial curve, poor fit]"
COc1ccc(OCC(O)Cn2c(Br)nc3c2c(=O)[nH]c(=O)n3C)cc1 (stereo not drawn),,"inconclusive [inhibitor, single point]"
CC1=C(C(=O)N2CCOCC2)CC(CC(=O)NC(c2ccccc2)c2ccccc2)C(=O)N1Cc1ccc(C(C)(C)C)cc1 (stereo not drawn),,"inconclusive [inhibitor, single point]"

SMILES,"activity change, negative = inhibition",Potency
O=C(CN1CCN(C(=O)c2cccc(-n3cnnn3)c2)CC1)Nc1ccccc1Cl,inactive: 7.54%,
COc1ccc(NS(=O)(=O)c2ccc(NC(=S)NC(=O)CC(C)C)cc2)cc1,,"inconclusive [inhibitor, partial curve, poor fit]"
O=C(CN1CCN(S(=O)(=O)N2CCCCC2)CC1)Nc1cc(Cl)cc(Cl)c1,,"inconclusive [inhibitor, partial curve, poor fit]"
CCCN(CCC)CCN1C(=O)C2C(C(=O)Nc3cccc(SC)c3)C3C=CC2(O3)C1C(=O)NC1CCCCC1 (stereo not drawn),,"inconclusive [inhibitor, single point]"
COc1cccc(NC(=O)CSc2nccn2Cc2ccc3c(c2)OCO3)c1,inactive: 6.96%,
O=C(CCNC(=O)c1ccc(Br)cc1)NCC(c1ccco1)N1CCCCC1 (stereo not drawn),,"inconclusive [inhibitor, partial curve, poor fit]"
COCCn1nnnc1CN(Cc1ccco1)Cc1cc2cc3c(cc2[nH]c1=O)OCO3,inactive: 60.6%,
O=c1c2ccccc2nnn1CCc1ccccc1,,"inconclusive [inhibitor, single point]"
Cc1ccccc1/C=N/NC(=O)Cc1ccc(Cl)cc1,,"inconclusive [inhibitor, partial curve, poor fit]"
CC(=O)c1cccc(NC(=O)Cn2c(=O)oc3cc(S(=O)(=O)NC4CCCC4)ccc32)c1,inactive: -6.52%,
O=C(CCn1c(=O)oc2ccc(Cl)cc21)N1CCN(c2ccccc2)CC1,,"inconclusive [inhibitor, partial curve]"
O=C(Nc1ccccc1N1CCCCC1)c1cccc(Cl)c1,,"inconclusive [inhibitor, single point]"
CCOC(=O)CSc1ccc2nnc(-c3ccncc3)n2n1,inactive: 1.41%,
COC(=O)c1ccc(N/C=C\C(=O)c2ccc3c(c2)OCO3)cc1,inactive: 49.9% [at 7.66 µM],
c1ccc(-n2nnnc2SCCCSc2nc3ccccc3s2)cc1,,"inconclusive [inhibitor, single point]"
CC(=N\NC(=O)c1ccccc1)/C(=N/O)C(=O)Nc1ccccc1,,"inconclusive [inhibitor, partial curve, poor fit]"
COc1ccc(CCNS(=O)(=O)c2ccc(F)c(C(=O)Nc3ccc(Cl)cc3)c2)cc1OC,,"inconclusive [inhibitor, single point]"
Cc1cc(C(=O)COC(=O)c2ccc(NC(=O)CC#N)cc2)c(C)n1CCc1ccc(F)cc1,,"inconclusive [inhibitor, single point]"
OC(c1cc(Cl)cc(Cl)c1)c1ncc(-c2cccc(F)c2)[nH]1 (stereo not drawn),,"inconclusive [inhibitor, partial curve, poor fit]"
CC(=NCCc1ccccc1)C1=C(O)C(c2ccccc2)OC1=O (stereo not drawn),,"inconclusive [inhibitor, partial curve, poor fit]"
OC(COc1ccc2c(c1)CCC2)Cn1cnc2ccccc21 (stereo not drawn),,"inconclusive [inhibitor, single point]"
